# Data taken from the supplement of paper PMC4166925.
# ± gives the standard deviation of the averaged measurements. Over roughly 33,000 sequences, “E-score (dimensionless, -0.5 to 0.5)” has its median near -0.049; the highest 2% begin near 0.37. The list shows a part of the results.
# Test system: T1, PmTbr T-box DNA-binding domain (GST fusion)
# T1 sequence: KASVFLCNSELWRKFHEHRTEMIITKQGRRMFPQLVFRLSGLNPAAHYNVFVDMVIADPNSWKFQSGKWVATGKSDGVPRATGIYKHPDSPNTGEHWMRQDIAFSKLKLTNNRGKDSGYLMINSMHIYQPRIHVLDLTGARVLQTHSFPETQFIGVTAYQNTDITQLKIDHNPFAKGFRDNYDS
# Test: PBM E-score of 8-mer (E-score (dimensionless, -0.5 to 0.5)); Tbr is Tbrain of the sea star Patiria miniata (Pm) or the sea urchin Strongylocentrotus purpuratus (Sp); higher = stronger binding preference; most listed sequences are background and not binding sites
# Conditions: the construct has about 5 more residues each side
# In short: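 GST-fused Tbr T-box DNA-binding domains (the whole T-box plus about five flanking residues) were expressed in BL21 E. coli at 20 °C and purified by glutathione affinity chromatography. Universal Agilent oligonucleotide arrays were made double-stranded by primer extension, incubated with 200 nM protein in PBS (pH 7.5), then scanned and quantified. Every ungapped 8-mer was scored from probe intensities. The Universal PBM Analysis Suite gave each word an enrichment E-score, averaged over duplicate arrays.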
row,Sequence,PBM E-score of 8-mer
1,ACTGATCA,-0.104 ± 0.025
2,AATTGCTC,0.0908 ± 0.0015
3,GCCCGAAA,0.045 ± 0.0033
4,ATAGATTA,-0.119 ± 0.067
5,CCGCTTTA,-0.0206 ± 0.08
6,AGACGCTG,-0.078 ± 0.052
7,GGGTGTTA,0.4737 ± 0.00077
8,CATCGCAG,0.0526 ± 0.063
9,GCCGTCCA,-0.0964 ± 0.033
10,CCCTAGCG,-0.134 ± 0.076
11,GACGGAGC,-0.0984 ± 0.018
12,ACAATCAA,0.00085 ± 0.022
13,AACGACAA,-0.0107 ± 0.026
14,AAATGATG,-0.138 ± 0.13
15,AGATTATC,0.114 ± 0.038
16,CACATTCG,0.333 ± 0.026
17,AGTCCACG,0.00505 ± 0.057
18,ATTACCGA,-0.0683 ± 0.02
19,ATCGGTGA,0.0545 ± 0.041
20,AGCGAAGG,0.0352 ± 0.017
21,CCGTTATC,0.0968 ± 0.011
22,CTCCCTAA,-0.146 ± 0.072
23,AATGCTCA,-0.175 ± 0.04
24,ACGCACGG,-0.00685 ± 0.008
25,GACTCATC,-0.298 ± 0.013

row,Sequence,PBM E-score of 8-mer
1,CAGGTGCC,0.4 ± 0.0072
2,ATTCGGTA,-0.266 ± 0.025
3,AGATGGAC,-0.281 ± 0.02
4,GTCGATAA,0.232 ± 0.025
5,CAACTTGA,0.112 ± 0.01
6,ATGGGGGA,-0.23 ± 0.018
7,AAAGAAGT,0.0456 ± 0.028
8,ACTGAGCA,-0.203 ± 0.039
9,AACGAATT,0.0199 ± 0.012
10,GAAGATTA,-0.00178 ± 0.036
11,TCATCACA,0.356 ± 0.025
12,ACACAGCT,0.0986 ± 0.0019
13,TAGGTGCA,0.22 ± 0.024
14,CCAACAAA,0.0315 ± 0.043
15,GAAGAACA,-0.24439 ± 4.9e-05
16,ACAGGAAG,-0.0347 ± 0.064
17,AAACCTAA,-0.0751 ± 0.036
18,GCTAACCC,0.00156 ± 0.0032
19,CCCAGCAA,-0.00337 ± 0.019
20,GTCAAGGA,-0.13 ± 0.032
21,CGAGAGGA,0.0951 ± 0.0089
22,ATAGCTAG,-0.0742 ± 0.12
23,CGACGGTA,-0.0648 ± 0.0062
24,CATTGCAG,-0.0623 ± 0.12
25,AGTTGACC,-0.231 ± 0.009

row,Sequence,PBM E-score of 8-mer
1,CCAGAGAC,0.00236 ± 0.015
2,GATTTCTA,0.00863 ± 0.024
3,ACGAATGG,0.0417 ± 0.027
4,AATGCGCT,-0.198 ± 0.051
5,CGCAACCA,-0.0188 ± 0.013
6,CAACGCTA,0.102 ± 0.0072
7,CTTTGGGC,-0.26 ± 0.11
8,GATGTAGA,-0.24 ± 0.033
9,ATTCGGAC,-0.273 ± 0.039
10,GGCACCAA,0.231 ± 0.024
11,ATCGGTCG,-0.0188 ± 0.049
12,ACTAATAT,-0.123 ± 0.059
13,AACGCAAC,-0.0356 ± 0.018
14,AAAGCTCG,-0.229 ± 0.069
15,GTAAATGA,-0.198 ± 0.098
16,GGTCTACA,-0.0999 ± 0.022
17,AATTACAT,-0.0447 ± 0.052
18,CGGGACAA,-0.245 ± 0.026
19,ACATGAAA,-0.0772 ± 0.04
20,CATATGGC,-0.227 ± 0.041
21,CAGATGGC,-0.118 ± 0.0089
22,GGTCACTA,0.0131 ± 0.07
23,GTTGGTGA,0.0811 ± 0.016
24,ATTTGAGG,-0.118 ± 0.082
25,CAGGGAAC,-0.0935 ± 0.11

row,Sequence,PBM E-score of 8-mer
1,AATACGCT,-0.0344 ± 0.027
2,AATTCAGT,-0.0033 ± 0.047
3,AAGAACCA,-0.148 ± 0.0063
4,AAATGTGC,0.206 ± 0.049
5,GGCTCCGA,-0.171 ± 0.017
6,TGCGACCA,0.189 ± 0.0079
7,CGTGCAGA,-0.168 ± 0.075
8,CCGTGTGA,0.335 ± 0.015
9,AATTAAGG,-0.152 ± 0.064
10,CATTCGAG,-0.183 ± 0.021
11,TCTCGGAA,-0.243 ± 0.017
12,AGCCAAAG,-0.273 ± 0.029
13,AGCGTGCG,0.249 ± 0.034
14,CCATATAA,-0.138 ± 0.043
15,CCGCCCTA,-0.196 ± 0.037
16,AATACGAA,-0.143 ± 0.041
17,CATTTAGC,0.16 ± 0.044
18,GTAGAAGA,-0.277 ± 0.034
19,CACAACCC,0.111 ± 0.059
20,GAAGAGAC,-0.282 ± 0.024
21,AACAGCTA,0.241 ± 0.04
22,CACATAAG,0.174 ± 0.033
23,GCAAAGGC,-0.146 ± 0.0076
24,ATTAGAAA,-0.168 ± 0.049
25,CACCGGGA,0.117 ± 0.012

row,Sequence,PBM E-score of 8-mer
1,AGTATACT,-0.169 ± 0.094
2,AGCCAACT,-0.15 ± 0.0077
3,GAGCGTAA,-0.301 ± 0.041
4,ACGCCGAT,-0.00989 ± 0.039
5,GGAAGACC,-0.0885 ± 0.028
6,AACTGATT,-0.2812 ± 0.0021
7,GACGAGTC,-0.109 ± 0.073
8,CCGTTACG,-0.125 ± 0.066
9,AGCGTAAC,-0.0296 ± 0.0038
10,AAAGTTGG,0.00902 ± 0.056
11,AAAATGAT,-0.0806 ± 0.056
12,TAATGATA,-0.13 ± 0.067
13,GGTGCCAC,0.398 ± 0.015
14,CGCTGCGA,0.121 ± 0.0033
15,CTTTCCCA,0.0554 ± 0.092
16,ACGCTCTA,-0.124 ± 0.013
17,CTCCGTCA,0.0554 ± 0.069
18,AGTGGGTC,-0.206 ± 0.021
19,AGCGCAAG,-0.0939 ± 0.037
20,CCTGGCCC,-0.123 ± 0.027
21,CTCAATCA,-0.02664 ± 0.00021
22,AATCTGCT,0.0322 ± 0.063
23,AGGTTGCC,-0.0406 ± 0.058
24,AGGCACCT,0.23 ± 0.025
25,CTAAGTAA,-0.198 ± 0.058

row,Sequence,PBM E-score of 8-mer
1,ACGTAACG,-0.0182 ± 0.018
2,GACCGTGA,0.118 ± 0.025
3,AAAGCAAA,0.0181 ± 0.017
4,CACCCATC,0.201 ± 0.011
5,AAACAGGT,0.0709 ± 0.028
6,CAATTAAG,-0.0593 ± 0.055
7,CTGTGGCC,-0.178 ± 0.036
8,AGCTGTTC,0.0464 ± 0.026
9,AATCTCCC,-0.0572 ± 0.13
10,AAGTTCAA,0.0328 ± 0.073
11,TCAACTCA,-0.0373 ± 0.048
12,GAGCCAAA,-0.0529 ± 0.1
13,AATCAGGT,0.114 ± 0.033
14,AGCTACCA,-1e-05 ± 0.057
15,CTATAAAG,-0.053205 ± 2.1e-05
16,GATTTGCC,-0.00123 ± 0.046
17,CCCTTTGA,-0.0377 ± 0.059
18,AAACCTAG,0.113 ± 0.032
19,GCAGCCCA,-0.0256 ± 0.0052
20,GCCGCACA,0.00801 ± 0.037
21,ATATAACC,-0.0772 ± 0.028
22,AGTTTGGA,-0.336 ± 0.051
23,AAAATATA,-0.335 ± 0.12
24,ATGCAAGG,-0.0945 ± 0.046
25,GCCAGGAC,0.0312 ± 0.029

row,Sequence,PBM E-score of 8-mer
1,TAGGGACA,-0.259 ± 0.063
2,GGAAGAAA,-0.0966 ± 0.055
3,AAGAAGGG,-0.301 ± 0.034
4,CCTGTCCG,-0.0124 ± 0.082
5,CGGGAGCC,-0.191 ± 0.091
6,GGAAGGCC,-0.285 ± 0.076
7,GTGCAAAC,0.285 ± 0.037
8,CCTGCTTC,0.0358 ± 0.049
9,CATATGCA,-0.117 ± 0.0065
10,GTGTAGCA,0.197 ± 0.005
11,ACCCAAAG,-0.204 ± 0.037
12,CAAGAGTG,0.154 ± 0.047
13,CGTCAACA,0.311 ± 0.036
14,AGCTTAGA,-0.154 ± 0.011
15,AGGTGATA,0.468 ± 0.0054
16,TACGAAGA,-0.166 ± 0.067
17,AGCTTACT,-0.0866 ± 0.024
18,ACATATTG,0.125 ± 0.012
19,AAGGCAGC,-0.0911 ± 0.044
20,CCAGAAAG,-0.0143 ± 0.017
21,CACCCGGG,0.264 ± 0.0075
22,CAGCAACA,0.131 ± 0.077
